B1: Caulobacter ParB omega fusion; a variant is named by its letters at X, in order, B8GW30 (parent)
chain: MESVVVGEPGMSEGRRGLGRGLSALLGEVDAAPAQAPGEQLGGSREAPIEILQRNPDQPRRTFREEDLEDLSNSIREKGVLQPILVRPSPDTAGEYQIVAGERAWRAAQRAGLKTVPIMVRELDDLAVLEIGIIENVQRADLNVLEEALSYKVLMEKFERTQENIAQTIGKSXSHVANXMRLLXLPDEVQSYLVSGELTAXHARAIAAAADPVALAKQIIEGGLSVRETEALARKAPNLSAGKSKGGRPPRVKDTDTQALESDLSSVLGLDVSIDHRGSTGTLTITYATLEQLDDLCNRLTRGI

In all, about 81,000 sequences were measured (“one-hybrid fitness for binding parS DNA”: median about -0.17, highest 2% from about 0.51 on). Some of the results follow.

Variants of B1 are the subject of the assay. Description: one-hybrid fitness for binding parS DNA (scaled: cognate 1, non-cognate 0); higher = stronger binding. Conditions: with parS DNA site. The essentials: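 Fitness here means the log change in variant-to-wild-type read ratio between plasmids sequenced before and after selection. That scale was set so cognate equals 1 and non-cognate equals 0. The selection was a bacterial one-hybrid screen of Caulobacter ParB libraries, four specificity codons randomised, in E. coli USO carrying a HIS3 reporter with the site 19 bp from the promoter, grown 48 hours at 37°C on M9-minus-histidine with 0.1 mM IPTG and 5 mM 3-AT.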
HAQT: the “one-hybrid fitness for binding parS DNA” value was at most 0.2.

Consider TSWT, for which the “one-hybrid fitness for binding parS DNA” value is at most 0.2.

For RSAD, the “one-hybrid fitness for binding parS DNA” value is at most 0.2.

Regarding VPGM, the “one-hybrid fitness for binding parS DNA” value is at most 0.2.

For the variant PIDS, the “one-hybrid fitness for binding parS DNA” value is at most 0.2.

Take QSGF: the “one-hybrid fitness for binding parS DNA” value is at most 0.2.

Consider AAEG, for which the “one-hybrid fitness for binding parS DNA” value was at most 0.2.

With QMHK, the “one-hybrid fitness for binding parS DNA” value was at most 0.2.

Take LMIW: the “one-hybrid fitness for binding parS DNA” value is at most 0.2.

On to NCFV, for which the “one-hybrid fitness for binding parS DNA” value is at most 0.2.

Consider MVKC, for which the “one-hybrid fitness for binding parS DNA” value was at most 0.2.

Consider VGLD, for which the “one-hybrid fitness for binding parS DNA” value was at most 0.2.

Turning to PAWH, the “one-hybrid fitness for binding parS DNA” value was at most 0.2.

As to WRPI, the “one-hybrid fitness for binding parS DNA” value was at most 0.2.

With PIMC, the “one-hybrid fitness for binding parS DNA” value is at most 0.2.

In the case of CGYD, the “one-hybrid fitness for binding parS DNA” value was at most 0.2.

As for IPVF, the “one-hybrid fitness for binding parS DNA” value was at most 0.2.

Regarding CACG, the “one-hybrid fitness for binding parS DNA” value is at most 0.2.

Take LPTY: the “one-hybrid fitness for binding parS DNA” value was at most 0.2.

On to QPIR, for which the “one-hybrid fitness for binding parS DNA” value was at most 0.2.

Consider EYAI, for which the “one-hybrid fitness for binding parS DNA” value was at most 0.2.

Turning to PKWN, the “one-hybrid fitness for binding parS DNA” value was at most 0.2.

With RMWY, the “one-hybrid fitness for binding parS DNA” value turned out to be 0.497.

Take TPDF: the “one-hybrid fitness for binding parS DNA” value was at most 0.2.

Regarding QWMV, the “one-hybrid fitness for binding parS DNA” value was at most 0.2.

In the case of ADLR, the “one-hybrid fitness for binding parS DNA” value is at most 0.2.

As for DLTS, the “one-hybrid fitness for binding parS DNA” value was at most 0.2.

Take RPPQ: the “one-hybrid fitness for binding parS DNA” value was at most 0.2.

For the variant LLRG, the “one-hybrid fitness for binding parS DNA” value was at most 0.2.

Turning to HWCH, the “one-hybrid fitness for binding parS DNA” value was at most 0.2.

Consider SGPF, for which the “one-hybrid fitness for binding parS DNA” value is at most 0.2.

Regarding PMHG, the “one-hybrid fitness for binding parS DNA” value was at most 0.2.

For HHQY, the “one-hybrid fitness for binding parS DNA” value is at most 0.2.

Regarding NTRF, the “one-hybrid fitness for binding parS DNA” value was at most 0.2.

In the case of SSGK, the “one-hybrid fitness for binding parS DNA” value is at most 0.2.

Turning to GVFP, the “one-hybrid fitness for binding parS DNA” value was at most 0.2.

As for RCLI, the “one-hybrid fitness for binding parS DNA” value is at most 0.2.

As to DDGT, the “one-hybrid fitness for binding parS DNA” value was at most 0.2.

Take SDSF: the “one-hybrid fitness for binding parS DNA” value was at most 0.2.

On to WRQC, for which the “one-hybrid fitness for binding parS DNA” value was at most 0.2.

With CANE, the “one-hybrid fitness for binding parS DNA” value is at most 0.2.

In the case of QLDF, the “one-hybrid fitness for binding parS DNA” value is at most 0.2.

As for LKRV, the “one-hybrid fitness for binding parS DNA” value was at most 0.2.

As to GRFI, the “one-hybrid fitness for binding parS DNA” value was at most 0.2.

Regarding ACTN, the “one-hybrid fitness for binding parS DNA” value is at most 0.2.

Regarding NGED, the “one-hybrid fitness for binding parS DNA” value was at most 0.2.

Consider RPDA, for which the “one-hybrid fitness for binding parS DNA” value is at most 0.2.

Regarding SCEC, the “one-hybrid fitness for binding parS DNA” value is at most 0.2.

For the variant NNTG, the “one-hybrid fitness for binding parS DNA” value was at most 0.2.

In the case of RHRY, the “one-hybrid fitness for binding parS DNA” value was 0.473.

Turning to TRQR, the “one-hybrid fitness for binding parS DNA” value was at most 0.2.

SLHC: the “one-hybrid fitness for binding parS DNA” value is at most 0.2.

For the variant KDDS, the “one-hybrid fitness for binding parS DNA” value is at most 0.2.

As to LVIW, the “one-hybrid fitness for binding parS DNA” value is at most 0.2.

Turning to KDHC, the “one-hybrid fitness for binding parS DNA” value is at most 0.2.

Regarding RCQQ, the “one-hybrid fitness for binding parS DNA” value was at most 0.2.

In the case of LHQE, the “one-hybrid fitness for binding parS DNA” value was at most 0.2.

Regarding SACS, the “one-hybrid fitness for binding parS DNA” value was at most 0.2.

In the case of GVNA, the “one-hybrid fitness for binding parS DNA” value was at most 0.2.

Regarding HLPF, the “one-hybrid fitness for binding parS DNA” value is at most 0.2.

In the case of DFYC, the “one-hybrid fitness for binding parS DNA” value is at most 0.2.

With LNEM, the “one-hybrid fitness for binding parS DNA” value is at most 0.2.

Take RSIE: the “one-hybrid fitness for binding parS DNA” value is at most 0.2.

RQQD: the “one-hybrid fitness for binding parS DNA” value was at most 0.2.

For the variant INLC, the “one-hybrid fitness for binding parS DNA” value is at most 0.2.

Consider NVKG, for which the “one-hybrid fitness for binding parS DNA” value was at most 0.2.

Turning to ETCC, the “one-hybrid fitness for binding parS DNA” value was at most 0.2.

For VAHN, the “one-hybrid fitness for binding parS DNA” value is at most 0.2.

With NVWA, the “one-hybrid fitness for binding parS DNA” value is at most 0.2.

TPKC: the “one-hybrid fitness for binding parS DNA” value was at most 0.2.

On to PDVG, for which the “one-hybrid fitness for binding parS DNA” value is at most 0.2.

For the variant LSLC, the “one-hybrid fitness for binding parS DNA” value is at most 0.2.

In the case of ATRP, the “one-hybrid fitness for binding parS DNA” value is at most 0.2.

Regarding PTPD, the “one-hybrid fitness for binding parS DNA” value is at most 0.2.

For the variant QHIH, the “one-hybrid fitness for binding parS DNA” value was at most 0.2.

As for QCML, the “one-hybrid fitness for binding parS DNA” value is at most 0.2.

For the variant LDKK, the “one-hybrid fitness for binding parS DNA” value is at most 0.2.

As to QQWT, the “one-hybrid fitness for binding parS DNA” value is at most 0.2.

Regarding YPVA, the “one-hybrid fitness for binding parS DNA” value is at most 0.2.

As for HYRW, the “one-hybrid fitness for binding parS DNA” value was at most 0.2.

With QCSP, the “one-hybrid fitness for binding parS DNA” value is at most 0.2.

On to FWQS, for which the “one-hybrid fitness for binding parS DNA” value is at most 0.2.

For RGEF, the “one-hybrid fitness for binding parS DNA” value is at most 0.2.

On to PLHA, for which the “one-hybrid fitness for binding parS DNA” value is at most 0.2.

Turning to EVPS, the “one-hybrid fitness for binding parS DNA” value is at most 0.2.

Take NVPP: the “one-hybrid fitness for binding parS DNA” value was at most 0.2.

PHWR: the “one-hybrid fitness for binding parS DNA” value is at most 0.2.

Regarding QLYD, the “one-hybrid fitness for binding parS DNA” value was at most 0.2.

RKKR: the “one-hybrid fitness for binding parS DNA” value is at most 0.2.

As for FRNG, the “one-hybrid fitness for binding parS DNA” value was at most 0.2.

For the variant FLHG, the “one-hybrid fitness for binding parS DNA” value was at most 0.2.

RLCA: the “one-hybrid fitness for binding parS DNA” value worked out at 0.609.

Take SHRD: the “one-hybrid fitness for binding parS DNA” value is at most 0.2.

As for QNIL, the “one-hybrid fitness for binding parS DNA” value is at most 0.2.

Consider RRWW, for which the “one-hybrid fitness for binding parS DNA” value is at most 0.2.

For the variant NFDR, the “one-hybrid fitness for binding parS DNA” value was at most 0.2.

FSYS: the “one-hybrid fitness for binding parS DNA” value was at most 0.2.

Take PWVI: the “one-hybrid fitness for binding parS DNA” value is at most 0.2.

STRG: the “one-hybrid fitness for binding parS DNA” value is at most 0.2.

For the variant RWYN, the “one-hybrid fitness for binding parS DNA” value was determined as 0.223.

Consider SRCY, for which the “one-hybrid fitness for binding parS DNA” value was at most 0.2.

For TVPC, the “one-hybrid fitness for binding parS DNA” value is at most 0.2.

On to WCYS, for which the “one-hybrid fitness for binding parS DNA” value was at most 0.2.

Take PMAS: the “one-hybrid fitness for binding parS DNA” value was at most 0.2.

Regarding DDSF, the “one-hybrid fitness for binding parS DNA” value is at most 0.2.

As to GIDR, the “one-hybrid fitness for binding parS DNA” value is at most 0.2.

Take GCMR: the “one-hybrid fitness for binding parS DNA” value is at most 0.2.

With NGGN, the “one-hybrid fitness for binding parS DNA” value was at most 0.2.

Regarding PIAM, the “one-hybrid fitness for binding parS DNA” value was at most 0.2.

Consider PMAG, for which the “one-hybrid fitness for binding parS DNA” value was at most 0.2.

Turning to ADQS, the “one-hybrid fitness for binding parS DNA” value is at most 0.2.

EDHG: the “one-hybrid fitness for binding parS DNA” value was at most 0.2.

Take CFGC: the “one-hybrid fitness for binding parS DNA” value was at most 0.2.

As for QYNE, the “one-hybrid fitness for binding parS DNA” value is at most 0.2.

Turning to LMDK, the “one-hybrid fitness for binding parS DNA” value is at most 0.2.

For the variant WSKG, the “one-hybrid fitness for binding parS DNA” value was at most 0.2.

On to QDNQ, for which the “one-hybrid fitness for binding parS DNA” value is at most 0.2.

For the variant REHY, the “one-hybrid fitness for binding parS DNA” value was at most 0.2.

On to NSTA, for which the “one-hybrid fitness for binding parS DNA” value was at most 0.2.

For the variant IDTG, the “one-hybrid fitness for binding parS DNA” value was at most 0.2.

Take CNCM: the “one-hybrid fitness for binding parS DNA” value is at most 0.2.

As for TDQR, the “one-hybrid fitness for binding parS DNA” value is at most 0.2.

Regarding QPAG, the “one-hybrid fitness for binding parS DNA” value was at most 0.2.

Take PFAN: the “one-hybrid fitness for binding parS DNA” value is at most 0.2.

Consider VDVR, for which the “one-hybrid fitness for binding parS DNA” value is at most 0.2.

Consider YKDW, for which the “one-hybrid fitness for binding parS DNA” value was at most 0.2.

For the variant PYYF, the “one-hybrid fitness for binding parS DNA” value is at most 0.2.

With YQQD, the “one-hybrid fitness for binding parS DNA” value is at most 0.2.

With TYSN, the “one-hybrid fitness for binding parS DNA” value was at most 0.2.

As for TMSS, the “one-hybrid fitness for binding parS DNA” value was at most 0.2.

For the variant VWTC, the “one-hybrid fitness for binding parS DNA” value was at most 0.2.

With PHSF, the “one-hybrid fitness for binding parS DNA” value was at most 0.2.

In the case of AWQG, the “one-hybrid fitness for binding parS DNA” value is at most 0.2.

As for IVSR, the “one-hybrid fitness for binding parS DNA” value is at most 0.2.

On to PFGR, for which the “one-hybrid fitness for binding parS DNA” value was at most 0.2.

Consider ICDS, for which the “one-hybrid fitness for binding parS DNA” value was at most 0.2.

For the variant QIMD, the “one-hybrid fitness for binding parS DNA” value is at most 0.2.

Take HEAL: the “one-hybrid fitness for binding parS DNA” value was at most 0.2.

RHHE: the “one-hybrid fitness for binding parS DNA” value was at most 0.2.

As to NIWS, the “one-hybrid fitness for binding parS DNA” value was at most 0.2.

Consider TCMK, for which the “one-hybrid fitness for binding parS DNA” value was at most 0.2.

As for ECMS, the “one-hybrid fitness for binding parS DNA” value is at most 0.2.

With DKAR, the “one-hybrid fitness for binding parS DNA” value is at most 0.2.

Turning to KKNT, the “one-hybrid fitness for binding parS DNA” value was at most 0.2.

As for WGRI, the “one-hybrid fitness for binding parS DNA” value is at most 0.2.

Turning to RMNI, the “one-hybrid fitness for binding parS DNA” value is at most 0.2.

With GSHP, the “one-hybrid fitness for binding parS DNA” value is at most 0.2.

On to QQIT, for which the “one-hybrid fitness for binding parS DNA” value was at most 0.2.

In the case of ESVM, the “one-hybrid fitness for binding parS DNA” value was at most 0.2.

For the variant YREW, the “one-hybrid fitness for binding parS DNA” value was at most 0.2.

As to MHEG, the “one-hybrid fitness for binding parS DNA” value is at most 0.2.

For ALNY, the “one-hybrid fitness for binding parS DNA” value is at most 0.2.

Take MKSR: the “one-hybrid fitness for binding parS DNA” value is at most 0.2.

For the origin of these results see a collection of fitness landscapes (doi:10.1016/j.celrep.2020.107928).
